From the supplement of paper PMC11417369
The other results are listed elsewhere or left out.

test system: PfAP2-HC AP2 domain (GST-tagged); test: gcPBM binding intensity (ln(normalized median fluorescence intensity)); higher = stronger DNA binding
How it was run: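 GST-fused DNA-binding domains of P. falciparum, expressed in E. coli, were applied at about 25 μg on average for 1 h to an Agilent 4 × 180k array of primer-extended double-stranded 36-bp intergenic genomic probes and negative controls. Binding intensity is the highest Masliner-normalised natural-log median intensity across replicate spots of either probe orientation, measured with Alexa488 anti-GST antibody and a 488 nm scan.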

Row | Sequence | gcPBM binding intensity (ln)
1 | TAACCTATAATATTCACACACATATAAATATTATAG [CACACA_site6592] | 9.97
2 | TTAAAATAAAGTAGTGGTACAAAAAAAAAAAAAAAA [XGTACX_site6322] | 9.55
3 | ATTAAATCGATATATACACACATGTTTGGTATATTC [CACACA_site7285] | 9.77
4 | AGTAATAGTTTGTGCACACTCAAGTATATCATATAT [CACACA_site4034] | 10.2
5 | TTTTACTTAAAACACACACACACAAAAAAAAAAAAA [CACACA_site947] | 10.6
6 | TTTTTCAGAAAAGAAACACACATATTTATATTTATA [CACACA_site7167] | 9.59
7 | TATATGTATATATATTAACACACAAAAAAAAAAAAA [CACACA_site8534] | 9.75
8 | TAAACAAATAAATAAACACACAATATCTGTATTTAT [CACACA_site5978] | 9.75
9 | AATAAATTAGAAGGATGTACTTTGTTTAATATAGAG [XGTACX_site1943] | 9.62
10 | TAATATAATCTGAGTGCACACAAATAAATAAACATA [CACACA_site8032] | 9.94
11 | AGGTTATATATGAACAAAAATAAAATATTCATAGGC [TGCATGCA_negctrl_site46] | 9.77
12 | TATGCAAATTAATAATGTACGAAATATTTATAATTT [XGTACX_site2324] | 9.54
13 | AAAAGGAACGGACACACACACATATATATATATATA [CACACA_site5894] | 10.9
14 | ATGTTATAAAATATATGTACATATTTATATAAAATA [XGTACX_site5766] | 9.59
15 | ATATTATATATATGATGTACTAAATATATTATTATG [XGTACX_site1703] | 9.6
16 | TATTTTATATTATCATGTACAAAAAAAAAGAAAAGA [XGTACX_site5379] | 9.44
17 | ATAAATAATTAGAATTGTACAAAAATTATATATATG [XGTACX_site5107] | 9.72
18 | ATATATTTATATAAATGTACACGTGAATATATAATA [XGTACX_site1166] | 9.79
19 | TATATAAAAAGTAATTGTACATATATATATATATAT [XGTACX_site7953] | 9.6
20 | TCTATTAATGAATATACACACATTATATATATATAT [CACACA_site5410] | 9.94
21 | TTTATATTCTTTTTTTAACACACAAAAAAAATAAAA [CACACA_site8574] | 9.4
22 | ATATGTAAAATGAAGATACATACATACATACATACA [CACACA_negctrl_site715] | 10

Row | Sequence | gcPBM binding intensity (ln)
23 | GTATATTTAAATAAAAGTACGTAAAGATATATTTAA [XGTACX_site8087] | 9.89
24 | ATAATATGCAATATTACACACAATTCATCATTTTTT [CACACA_site7477] | 9.85
25 | AAAAAAAAAAAACACACACACACATACAAAATATAT [CACACA_site1448] | 11.3
26 | ACATATGAATATTTTTGTACGTATATTGTTATTCTT [XGTACX_site4720] | 10.2
27 | TTTTTTTTTATTATCATGCACACATTTTTTTTTTTT [CACACA_site2254] | 9.99
28 | AATTATACGAAATAAAACTTAATAGACAAAAAATTA [CACACA_negctrl_site1384] | 9.57
29 | GTAATTTAAATAACAAGTACTAATGTGGATAAGCAG [XGTACX_site1163] | 9.83
30 | ATTTTGTATTGACGCTGTACAAACATTAATATAATA [XGTACX_site2496] | 9.45
31 | TTTTGCGTAGCAACGAGGTTTTTAAAAATGTAACCA [GTGCAC_negctrl_site691] | 9.34
32 | AACAAAATAAAACACACACACAAATGTACATATATA [CACACA_site2424] | 10.6
33 | TAGAAGCATCATTTTACACACATGCAAATGTAAACT [CACACA_site6973] | 9.73
34 | TATATATATATATATAAGCTTATAATAAAACAAAAA [XGTACX_negctrl_site568] | 9.82
35 | ATAGCAATAATGGAAAGTACAAAAAAACTTGTTATA [XGTACX_site8518] | 9.63
36 | TGTATTAATAAAAATACACACATCATATTATATAAA [CACACA_site3534] | 9.73
37 | CCTTTTAAGAGTTGCACACGTACAAAAAAAAAAAAA [CACACA_site3492] | 9.67
38 | AATAATAAAAAATACGCACACATGTAAACGTATGTT [CACACA_site3336] | 9.96
39 | GGCGATATAGAACTACGTACTTATACAAATTATAAT [XGTACX_site2307] | 9.55
40 | ACACATAAATGTATATATATATAAATATATGTATGT [CACACA_negctrl_site1532] | 9.82
41 | ATAAATGTTATGCATACACACTTTATACCTATTTAA [CACACA_site5967] | 9.79
42 | AATCCTTACAGACACACACACACGAATAAATAAAAA [CACACA_site480] | 10.6
43 | TATATATGTATATGTGTGCACCTTATTTCTTTTATT [GTGCAC_site9513] | 10
44 | TATGTATTATCAAAAAGTACTAAAAAAAAATAATAA [XGTACX_site4703] | 9.47

Row | Sequence | gcPBM binding intensity (ln)
45 | TTATAATTTTTGAGCACACACAAGCATATATATATA [CACACA_site1798] | 9.84
46 | AATAAATACATACATACATGCATACATATATCTCAA [TGCATGCA_site1040] | 9.69
47 | AAAAATAAAATATATATATATATATATATATATATA [CACACA_negctrl_site58] | 9.46
48 | TATTTTTATATATATACACACTTACAGATATATATT [CACACA_site5905] | 9.9
49 | AAACATAAATATGAGAGTACAAAAAATATTATGAAT [XGTACX_site151] | 9.85
50 | TGAAAAAAAAAATGCACACGCATACATATAATATGT [CACACA_site641] | 9.76
51 | TTATAATATATTACAAGTTCATTCATATAATATGTT [CACACA_negctrl_site1695] | 9.52
52 | ATCTCTTAAATTTTACGTACTTATTTTATCTTCTTA [XGTACX_site8877] | 9.94
53 | TAAATAAATTTGCACTGTACGCAAAAAAAAAAAAGA [XGTACX_site8781] | 9.69
54 | GTATATATATATTTATGTACTTACCTACATAATTAT [XGTACX_site4435] | 10.1
55 | AAAGGGGAGATATGAACACACAAAAAAAAAATATAT [CACACA_site7378] | 9.72
56 | TATATATATTTTAAATGTACTTATAAATTACCACTT [XGTACX_site5673] | 9.6
57 | AGAAAGGATATAAGCGTAGCTATATCATAAAAAATG [GTGCAC_negctrl_site332] | 9.61
58 | AAATAAAATTTTTGTTGTACTTATTTTTAGTATACT [XGTACX_site4254] | 9.65
59 | AATATTTACAGACATGCGCACACATAAATAAATAAT [CACACA_site8760] | 10
60 | AAAAATGATATGAGTTGTACATAAGTAAGAATTATT [XGTACX_site7089] | 9.89
61 | TAAAAACGATTTTTTGCACACACATAATAAGCAGAA [CACACA_site3870] | 10
62 | GGACAAGTTAAACGCACACAAATATATACCCCCATA [CACACA_site4996] | 10.3
63 | TATAATAAAATATGTACACACATACACCCATATATA [CACACA_site4808] | 10.3
64 | ACAAGTAATTAAGAGTGTACATAACTATAAATCCAA [XGTACX_site5215] | 10.1
65 | GATATGATGAGATTGATATTCATAAGAGGATTAATG [GTGCAC_negctrl_site515] | 9.59
66 | TGTATGTATGTATTATTTGTTATTTTAATTTTTTTG [TGCATGCA_negctrl_site256] | 9.86

Row | Sequence | gcPBM binding intensity (ln)
67 | GAGATTTATTTATGTGCACACTAGAACAATTGGATC [CACACA_site2090] | 9.82
68 | CTTTTTTCAAAACACACACACAAGAAAATATATATA [CACACA_site3109] | 10.1
69 | TTTTTTTTTTTTGTGCGTACATACCATTTTAATAAT [XGTACX_site2760] | 9.68
70 | AAGACATTTTTTAAGGTGCTTTGGAAAAAGGAGTAT [GTGCAC_site9816] | 9.7
71 | GATGTGATGTATTTGGTATTTTTCGATGTTGGTAGG [CACACA_negctrl_site355] | 10
72 | TATTATATATCAAAATGTACATTAATTTGAGTAATT [XGTACX_site5434] | 9.52
73 | TTACCTCTTTGAAATATACACACTAATCATATCAAC [CACACA_site8778] | 9.76
74 | TTTTTGCTATTCTATTATATATATAATATATTTTAC [CACACA_negctrl_site262] | 9.9
75 | TGTTCAGTAGGGCACACACACAACAAAATAAAAAAA [CACACA_site378] | 10.2
76 | ATGAGTTACATGGGAAAAATATATATATATATATAT [CACACA_negctrl_site579] | 9.48
77 | TGATAAATATGGAGCACACACACATAAACATACATA [CACACA_site420] | 10.4
78 | TTGTTGTATTATTTATGTACATATGTATATGTATAT [XGTACX_site1315] | 9.93
79 | TTTAAAAGATAAAACACACATACTAATAAAAAACAA [CACACA_site2556] | 9.92
80 | TTGTATCCTTAATGCATGCACCAAATAACAAAAGTA | 9.44
81 | AAAAAAAAAAAAAAAAGGGGGGGAGGGATTGAAAAA [CACACA_negctrl_site193] | 9.92
82 | ACAGTATTTCGAGATGGTACACATATATATATATAT [XGTACX_site6880] | 9.78
83 | AATGAGGATATATACACACATACATTAAAAAAATAT [CACACA_site1849] | 9.96
84 | ACATATATAAAATAATGTACATTTTTAAGAATGCGT [XGTACX_site7654] | 9.76
85 | ATTATAATTGCATATACACACAAAGGTTCATAACAA [CACACA_site7440] | 9.76
86 | TAAAGGCAAACAAACACACACACATATATACATATA [CACACA_site2123] | 11.1
87 | CCAATACTGTTTAAATGTACAAGTAGGAGGTTAATT [XGTACX_site7260] | 9.57
88 | AAAAATTAACAAAAGGTGCAAACAAATAGTGGTTTT [GTGCAC_site9998] | 10.1
